Source: patent US20100166772A1, “ANTIGEN-BINDING PROTEINS TARGETING S. AUREUS ORF0657n” (priority 2007, published 2010)

Key:
S. aureus Becker = experiment: Combination treatment vancomycin and mAb in cannulated rats, catheter bacteria load; format: in vivo; details: both sets of experiments (Tables 15 and 16)
Experimental: Cannulated rats were given vancomycin (20 mpk) sub. cu. at 1 hour (1 H) prior to iv challenge with 2−4×10^9 CFU of S. aureus Becker. At 1 H post challenge, the rats were injected with 6 mg/rat of either the mAb CS-D6, an isotype control mAb 20C2HA, or PBS. At 24 hours post challenge, the animals were sacrificed, the jugular vein catheters harvested and evaluated for the bacteria load on the catheter. Evaluation of catheters was performed by placement in selective broth medium, and outgrowth on the Piccolo incubation system. Outgrowth was compared to standard curves of S. aureus growth under the same conditions to calculate the number of CFU on the experimental catheters. In the first set of experiments (Table 15), small numbers of animals were used to test the system. In the second set of experiments (Table 16), larger numbers of rats were used. […] This model was designed to simulate a clinical situation in which a patient is undergoing surgery or other invasive procedure, and getting an empiric or prophylactic antibiotic. In the model, the mAb was injected after bacteria exposure, simulating adjunctive mAb treatment for infection during surgery.

S. aureus = experiment: Opsonophagocytosis activity (OPA) assay with HL60_DMF cells; format: cell-based
From the text: An opsonophagocytosis activity (OPA) assay was developed to evaluate an antibody's ability to opsonophagocytose. The assay measures the ability of antibodies to bind and fix complement (C′) to the bacterial surface, which results in an increase in the level of phagocytosis of these bacteria by granulocytic effecter cells.
ORF0657n is an iron regulated protein on the surface of S. aureus that appears to be involved in heme/Fe acquisition. […] For this assay the strain is iron starved to increase the expression of ORF0657n. This strain also lacks the ability to produce Protein A. Protein A can bind to the Fc portion of any IgG and the presence of this non-specifically bound antibody could interfere in the OPA reaction.
HL60 cells were exposed to dimethylformamide (DMF) for five to six days to induce the cells to differentiate towards a more granulocytic phenotype. Next, 2% C′-sufficient gnotobiotic pig serum was added to the antibody bound cells. Finally, the antibody and C′ exposed cells were then labeled with the fluorescent chemical 5′, 6′-FAM-SE.
After incubation of opsonized, fluorescently-labeled bacteria and unlabeled HL60_DMF cells, the level of phagocytosis was determined by measuring the percentage of HL60_DMF cells containing labeled bacteria by flow cytometry. […]

S. aureus RN4220 = experiment: Ex vivo model: passive protection of Balb/c mice with pre-opsonized bacteria; format: in vivo; details: bacteria pre-opsonized with 800 μg IgG, ip, 3 days post challenge
Experimental: Monoclonal antibodies were evaluated using a method of passive protection. Bacteria were pre-opsonized ex vivo with mAb prior to lethal injection via the intra-peritoneal (ip) route (ex vivo method). […] Bacteria were then pelleted and any unbound mAb removed. […] After challenge, each inoculum was quantitated by plating on TSA to insure that equivalent CFU was given to all groups of mice and that the mAbs had not aggregated the bacteria. Survival was monitored for 3 days post challenge. Since the target antigen must be present on the surface of the bacteria for this procedure to be effective, care was taken to ensure that ORF0657n was expressed on the bacteria prior to opsonization. The challenge strain was S. aureus RN4220, which was passaged 2× in the low iron medium RPMI. The dose of opsonized bacteria injected into each mouse was 1−2×10^9 CFU/mouse.

S. aureus strain Becker = experiment: Blood CFU (bacteremia) in cannulated rats, Experiment 5; format: in vivo; details: rat, 4 mg mAb ip 1 hour prior to challenge
Experimental: The cannulated rats studied in Experiment 5 (Table 12) were injected ip with 4 mg monoclonal antibody (CS-D7 or isotype control), or PBS alone, 1 hour prior to challenge. They were then challenged iv with 1−2×10^9 CFU S. aureus strain Becker. Blood was drawn from all rats at the designated time points. At the final time point (32 hours), blood was drawn, and the animals were sacrificed and the catheter removed. Blood was evaluated for bacteria by spreading 50 uL on TSA plates and culturing overnight. The catheters were evaluated for S. aureus by plating on mannitol salt plates overnight.

B1: mAb CS-D7: immunoglobulin having two light chains of SEQ ID NO: 1 and two heavy chains of SEQ ID NO: 2; IgG1, kappa (antibody)
heavy: QVQLQESGPGLVKPSETLSLTCTVSGGSIRSSSYYWGWFRQTPGKGLEWLGNVFFSGSAYYNPSLKNRVTISIDTSENQSSLKLTSVTAADTAVYYCARPQAYSHDSSGHSPFDLWGRGTLVTVSSASTKGPSVFPLAPSSKSTSGGTAALGCLVKDYFPEPVTVSWNSGALTSGVHTFPAVLQSSGLYSLSSVVTVPSSSLGTQTYICNVNHKPSNTKVDKRV[human IgG1 Fc left out]
light: EIVMTQSPATLSVSPGERATLSCRASQYVSDNLAWYQQKPGQAPRLLIYGASTRATGVPARFSGSGSGTEFTLTISSLQSEDFAVYYCQQYNNWRPVTFGQGTRLEIKRTVAAPSVFIFPPSDEQLKSGTASVVCLLNNFYPREAKVQWKVDNALQSGNSQESVTEQDSKDSTYSLSSTLTLSKADYEKHKVYACEVTHQGLSSPVTKSFNRGEC
modifications: mAb CS-D7 heavy chain; mAb CS-D7 light chain
notes: IgG1, kappa
enhancement of vancomycin activity versus isotype control mAb (S. aureus Becker): significant enhancement of the activity of vancomycin | opsonic activity compared to isotype control (S. aureus; FIGS. 4 and 5): higher opsonic activity compared to their IgG1 isotype control | quantity of mAb needed to produce a maximal level of phagocytosis (S. aureus; HL60_DMF cells, 2% pig serum complement): 0.06 µg | % survival (S. aureus RN4220): 25% | Aggregate (survivors/mice) (S. aureus RN4220): 5/20 | blood CFU (FIG. 6) (S. aureus strain Becker): a reduction of blood CFU was demonstrated
